Screen size: about 46,000 compounds; about 60 (0.1%) were called active. Roughly 3% stayed inconclusive and do not appear here. Calls come from the whole dose curve; as a rule, active = well fitted inhibition curve with a large enough effect; inconclusive = small, poorly fitted or top-dose-only effect; inactive = no such curve, though single readings can be large or run the other way. Some of the results follow.
Test: Primary qHTS assay for Inhibitors of ovarian cancer metastasis using an organotypic tumor microenvironment (TME) model.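 For activity change, negative = inhibition: plate controls were DMSO wells for no effect and tomatine positive control wells for full effect.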 Note: nearly all actives have a fitted effect of over 65% in size.
Conditions: SKOV3ip1-GFP adhesion/invasion on 3D omental model, fluorescence; series mostly up to 45.8 µM; activity change, negative = inhibition: at the top concentration
Outline: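 Adhesion/invasion was scored as fixed GFP-labeled SKOV3ip1 cell counts (488/509 nm), normalized to DMSO and tomatine controls. Cancer cells in serum-free medium, with four compound doses (0.36-46 umol/L), sat 2 hr at RT then 16 hr at 37 C on a 48 hr fibroblast/mesothelial/ECM culture.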

Activity change, negative = inhibition, inactive:
Cc1nc2cc(C(=O)O)ccc2n1-c1ccc(C(C)C)cc1 -0.413%
COc1ccc(OC)c(CNC(=O)CN2C(=O)CCn3nc(-c4cn(C)c5ccccc45)cc32)c1 11.7%
Cc1nc2nc(SCC(=O)NCc3ccccc3)nn2c(C)c1Cc1ccccc1 0.294%
CC(C)CC(=O)Nc1ccc(Cl)c(-c2nc3ccccc3[nH]2)c1 1.94%
Cc1ccc(NC(=O)c2ccc(Br)cc2)c(C(=O)c2ccccc2)c1 6.39%
COc1cc2nc(NCC(C)c3ccccc3)n3nc(-c4ccccc4)nc3c2cc1OC (configuration not stated) -0.432%
Cc1ccc(C)n1-c1nnc(N2CCCC(C(=O)NCc3ccccc3)C2)s1 (configuration not stated) -4.31%
CCOc1nc(NC(=O)NS(=O)(=O)Oc2ccccc2Cl)nc(-c2ccccc2)n1 -7.13%
CCOC(=O)c1ccccc1NC(=O)N(Cc1ccco1)C1CCN(C(C)=O)CC1 -26.3%
CCc1cccc(NC(=O)CN2C=NS(=O)(=O)c3ccccc32)c1 3.57%
CC(=O)Oc1ccccc1C(=O)O -3.39%
O=C(NCc1ccccc1)C(=O)NCC(c1cccnc1)N1CCN(c2ccccc2)CC1 (configuration not stated) 1.6%
COc1ccc(CCNC(=O)c2nn(C)c3c2CSc2ccccc2-3)cc1OC -1.48%
CCc1ccc(NC(=O)CSc2nc3ccsc3c(=O)n2C(C)CC)cc1 (configuration not stated) 2.17%
O=C(c1ccco1)n1nc(-c2ccccc2)nc1NCc1ccccc1Cl 38.5%
COc1cc(CN(C(=O)c2oc3ccccc3c2C)C2CCS(=O)(=O)C2)cc(OC)c1OC (configuration not stated) 13.5%
COc1ccccc1-n1c(SCC(=O)Nc2ccc(C)cc2)nc(O)cc1=O 9.72%
CNS(=O)(=O)CCc1ccc2[nH]cc(C3CCN(C)CC3)c2c1 -11.6%
CCc1ccc(-c2cc(C)no2)cc1S(=O)(=O)Nc1ccc(Cl)cc1 -7.02%
COc1ccc(-c2noc(-c3ccc(NC(C)c4ccccc4)c([N+](=O)[O-])c3)n2)cc1OC (configuration not stated) 3.28%
COc1cc(NS(=O)(=O)c2ccc3oc(=O)c4ncn(C)c4c3c2)cc(OC)c1 7.49%
Cc1ccc(-c2nc(S(=O)(=O)c3ccc(C)cc3)c(SCC(=O)NC3CCCCC3)o2)cc1 4.4%
COc1ccccc1CNC(=O)CCC1N=C2c3ccccc3N=C(SCC(=O)NCCc3ccc(OC)c(OC)c3)N2C1=O (configuration not stated) 24.8%
COc1cccc(NC(=O)c2cc3c(=O)n(Cc4cccnc4)ccc3nc2C)c1 0.224%
CCCN1C(=O)c2[nH]nc(-c3ccc(F)cc3)c2C1c1ccccn1 (configuration not stated) -0.634%
COc1cccc(C2CC(=O)N3CN(C4CCCCC4)CSC3=C2C#N)c1 (configuration not stated) -6.22%
COc1cc(NC(=O)C(CCS(C)(=O)=O)N2Cc3ccccc3C2=O)cc(OC)c1OC (configuration not stated) -2.24%
COc1ccc(-n2cc(C(=O)NC(C)c3ccccc3)c3ccccc3c2=O)cc1 (configuration not stated) 21.1%
O=C(NC1CCCC1)c1ccc(CSc2nc3ccncc3n2Cc2ccc(F)cc2)cc1 6.31%
Cc1ccc(N2CC(c3nnc(NC(=O)c4ccco4)s3)CC2=O)cc1C (configuration not stated) -3.77%
CCOc1ccc(NC(=O)c2ccc(-c3cccc(Cl)c3C)o2)cc1 -4.39%
CCCCC[C@H](O)C=C[C@H]1[C@H](O)CC(=O)[C@H]1CC=CCCCC(=O)O -15.9%
Cc1ccc(NC(=O)Cn2cc(S(=O)(=O)N3CCCC3)c(S(=O)(=O)N3CCCC3)c2)cc1C -8.64%
CCOc1ccc(Cn2c(CNS(=O)(=O)c3ccc([N+](=O)[O-])cc3)nc3cccnc32)cc1 -6.47%
Cc1cccc(C2C=C(c3ccc(F)cc3)Nc3nc4ccccc4n32)c1 (configuration not stated) 4.06%
CCOC(=O)c1cnc2c(ccc3ccccc32)c1Nc1ccc(OC)c(OC)c1 -20.4%
O=c1c2cc3c(nc2ncn1Cc1ccccc1F)CCCC3 -19.9%
Cc1ccc(NC(=O)Nc2nnc(SCC(=O)N3CCC(C)CC3)s2)cc1 -24%
COCCn1ccc2c(OCC(=O)NCc3ccc(F)cc3)cccc2c1=O 3.2%
O=C(Nc1nc2cccc(-c3ccc(CN4CCS(=O)(=O)CC4)cc3)n2n1)C1CC1 15.1%
COc1ccc(C(=O)NCCSc2c(C)[nH]c3ccccc23)cc1 1.46%
COc1ccccc1-c1cc(C(F)(F)F)nc(S(=O)(=O)CCCC(=O)Nc2ccc(F)c(Cl)c2)n1 -2.94%
COc1ccc(NC(=O)c2sc3nc(-c4cc5cccc(OC)c5oc4=O)[nH]c(=O)c3c2C)cc1 12.3%
Cc1c(NS(C)(=O)=O)cccc1-c1nc2ccccc2s1 -7.81%
Cc1ccc(C)c(CN2C(=O)c3ccccc3S(=O)c3ccc(C(=O)NCCc4ccc(Cl)cc4)cc32)c1 (configuration not stated) -2.12%
COc1ccc(NC(=O)c2cc(C3CC3)nc3c2c(C)nn3-c2ccc(C)cc2)cc1OC -21.2%
COc1cccc(CNC(=O)NCc2noc3ccc(C)cc23)c1 -2.12%

outcome, inactive:
N#Cc1ccc(NS(=O)(=O)c2ccc(-c3cnc(C4CC4)o3)cc2)cc1
Cc1ccc(NC(=O)CCc2c(C)nc3nc(C)nn3c2C)c(Cl)c1
CNC(=O)c1ccc(Nc2nnc(-c3ccc(C)c(S(=O)(=O)N4CCOCC4)c3)c3ccccc23)cc1
Cc1cccc(-c2nc(Cn3c(SCc4cc(C)ccc4C)nc4ccncc43)c(C)o2)c1
CC(=O)Nc1ccc(S(=O)(=O)NCCc2csc3nc(-c4cccc(C)c4)nn23)cc1
Cc1ccc(N(Cc2cccs2)C(=O)COc2ccccc2[N+](=O)[O-])cc1
O=C(CCCn1c2ccccc2c(=O)c2ccccc21)Nc1ccc(F)cc1Cl
Cc1ccc(-c2nn3c(-c4ccc(C)cc4)nnc3c3ccccc23)cc1
CC1CN(C(=O)N2CCC(C(=O)NC3CCCCCC3)CC2)c2ccccc2O1 (configuration not stated)
CCOC(=O)c1c(C)[nH]c(CCC(=O)NCc2ccccc2C)c1C
CCOc1ccccc1CN(CCc1ccc2c(c1)OCO2)Cc1cccc(OC)c1OC
COc1ccc(C(=O)N2CCC(c3c[nH]c4ccccc34)(c3c[nH]c4ccccc34)CC2)cc1
CN(C)c1ccc(CNC(=O)C2CCN(S(=O)(=O)c3cn(C)cn3)CC2)cc1
COc1ccccc1CNC(=O)c1oc2c(c1C)-c1nn(Cc3ccc(Cl)cc3)cc1CC2
CCOc1ccc(N(CC)S(=O)(=O)N2CCCC(C(=O)NCc3ccc(SC)cc3)C2)cc1 (configuration not stated)
